# About 12,000 (3.5%) of roughly 340,000 compounds were called active. This list was built around the results that the source calls inconclusive (neither active nor inactive); the mix of calls is not that of the screen. Calls follow the shape of the dose curve; as a rule, active = well fitted inhibition curve with a large enough effect; inconclusive = small, poorly fitted or top-dose-only effect, or another doubt; inactive = no such curve, though single readings can be large or run the other way. Potencies of inconclusive entries are left out as doubtful fits.
# Assay: qHTS Assay for Inhibitors of Hepatitis C Virus (HCV)
# Settings: Huh7.5.1 HCVcc-Cre (HCVcc is cell-culture hepatitis C virus) infection, luciferase reporter, 44 h; series mostly up to 41.8 µM
# How it was run: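 Cells (1,000/well) were plated 4 h before compound, then infected with HCVcc-Cre virus (~0.5 moi). After 44 h further culture, infection was read as luciferase luminescence following a 15 min substrate incubation at room temperature.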
# Potency is read from the fitted curve at half-maximal effect; tags tell the direction and shape of the fitted curve.
row,Structure (SMILES),Potency
1,Cc1ccc(C)c(NS(=O)(=O)c2ccc(OCC(=O)NCc3ccco3)cc2)c1,"inconclusive [inhibitor, single point]"
2,Cc1cc(C)n(-c2ccc(NN=C(C#N)C#N)cc2)n1,"inconclusive [inhibitor, single point]"
3,COc1cc(C(=O)N2CCN(C/C=C/c3ccccc3)CC2)cc(OC)c1OC,"inconclusive [inhibitor, single point]"
4,COc1ccc(CNC(=S)Nc2ccccc2)cc1Cl,"inconclusive [inhibitor, single point]"
5,Nc1c2ccccc2nc2ccccc12,active: 5.01 µM
6,Cc1cccc(-n2ncc3c(NC(C)C)ncnc32)c1,"inconclusive [inhibitor, single point]"
7,Cc1ccc(NC(=O)c2nc[nH]c2C(=O)N[C@H](C)c2ccccc2)cc1,"inconclusive [inhibitor, single point]"
8,CCOC(=O)N1CCC(NC(=O)c2cc(-c3ccc(F)cc3)[nH]c2C)CC1,"inconclusive [inhibitor, single point]"
9,Cc1ccc(NC(=O)COc2nsnc2N2CCOCC2)cc1Cl,"inconclusive [inhibitor, full curve, poor fit]"
10,CC(=O)C1=C(NC(=O)c2ccc(C(F)(F)F)cc2)C[C@@H]2[C@H]1C2(C)C,inactive
11,COCCOC(=O)c1[nH]c2c(c1C)C(=O)CC(c1ccco1)C2 (stereo unspecified),"inconclusive [inhibitor, full curve]"
12,CCCCNC(=S)N/N=C/c1sccc1C,inactive
13,Cc1cc(=O)oc2cc(OCC(=O)OC(C)C(=O)Nc3ccc(S(N)(=O)=O)cc3)ccc12 (stereo unspecified),"inconclusive [inhibitor, single point]"
14,O=C(CSc1nnc(-c2ccc(C(F)(F)F)cn2)o1)Nc1ccccc1Cl,inactive
15,CC(=O)N1c2ccc(S(=O)(=O)N3CCC(C(=O)Nc4cccc(Cl)c4)CC3)cc2CC1C (stereo unspecified),"inconclusive [inhibitor, full curve]"
16,COc1ccc(C(=O)Nc2nccs2)cc1[N+](=O)[O-],inactive
17,CCc1cccc(CC)c1NC(=O)C1SC(=Nc2ccccc2C)C(c2nc3ccccc3s2)=C1N (stereo unspecified),inactive
18,CN1CCC(=C2c3ccccc3Sc3ccccc32)CC1,active: 10 µM
19,COc1ccc(-c2cc(=O)oc3c(C)c(OC(C)C(=O)N4C[C@H]5C[C@@H](C4)c4cccc(=O)n4C5)ccc23)cc1 (stereo partly specified),"inconclusive [inhibitor, single point]"
20,COC(=O)c1cc(CN2CCN(c3ccccc3)CC2)ccc1O,inactive
21,COc1ccccc1NC(=O)Nc1nn(C)c2cccc(N(C)C)c12,"inconclusive [inhibitor, partial curve]"
22,Cc1ccc(S(=O)(=O)NC(C)(C)CN2CCCCC2)cc1,inactive
23,CCOC(=O)[C@@H]1[C@H]2COc3ccc(Br)cc3[C@@H]2N2C(=O)N(c3cccc(Cl)c3)C(=O)[C@]12C,"inconclusive [inhibitor, single point]"

row,Structure (SMILES),Potency
1,Cc1nc(N2CCN(C(=O)c3ccco3)CC2)c2c3c(sc2n1)CCCC3,active: 2.82 µM
2,FC(F)Oc1ccc(NC(=S)NCCc2ccccn2)cc1,inactive
3,COc1ccc(C2C(C#N)=C(N)Oc3cc(C)[nH]c(=O)c32)cc1OC (stereo unspecified),inactive
4,Cc1ccc(CN2C3=NCCCN3c3ccccc32)cc1,"inconclusive [inhibitor, single point]"
5,Fc1ccc2c(c1)C(c1ccncc1)=NNC(c1ccc(Cl)cc1)=N2,"inconclusive [inhibitor, single point]"
6,O=C(Nc1ccc(Nc2ccccc2)cc1)c1ccc(Cl)cc1Cl,"inconclusive [inhibitor, partial curve]"
7,COc1ccc(/C=N/NC(=O)CN(c2ccc(OC)cc2)S(=O)(=O)c2ccccc2)cc1,inactive
8,CN(CCOc1ccc(Cl)cc1)C(=O)Cc1ccc(S(=O)(=O)N2CCOCC2)s1,"inconclusive [inhibitor, partial curve]"
9,Oc1ccccc1CNc1nc2ccccc2n1CCN1CCCCC1,inactive
10,Cc1c(C(=O)OCC(=O)c2c(N)n(CC(C)C)c(=O)n(C)c2=O)oc2ccccc12,"inconclusive [inhibitor, full curve]"
11,CCOC(=O)c1nn(-c2ccccc2F)c2nc(-c3ccco3)c(C#N)c(=O)n12,inactive
12,COc1cccc(CNC(=O)C2CCC(CNS(=O)(=O)c3cccc4cccnc34)CC2)c1 (stereo unspecified),inactive
13,Cc1cc(-c2nnc(CCC(=O)NCc3cc(F)cc(C(F)(F)F)c3)o2)no1,inactive
14,N#CCCn1cc(/C=C(\C#N)c2nc3ccccc3s2)c(-c2ccc(F)cc2)n1,"inconclusive [inhibitor, partial curve]"
15,CC(C)N(CC(=O)Nc1ccc(Cl)cc1C(F)(F)F)C(=O)CCl,active: 3.98 µM
16,CCC/C(=N/NC(=O)c1csc(C)c1C)c1ccc(Cl)s1,"inconclusive [inhibitor, single point]"
17,CS(=O)(=O)c1ccc(Cl)c(NC(=O)CCl)c1,"inconclusive [inhibitor, single point]"
18,COc1ccc(/C=C2/C(=O)N(CC3CCCO3)C(=S)N2C)c(OC)c1 (stereo unspecified),inactive
19,NC(=O)c1ncn([C@@H]2O[C@H](CNCc3ccc(-c4cc(C(F)(F)F)ccc4Cl)o3)[C@@H](O)[C@H]2O)n1,active: 3.16 µM
20,COc1ccc2cc(C(=O)C3CCCN(Cc4cccc(C)n4)C3)ccc2c1 (stereo unspecified),"inconclusive [inhibitor, single point]"
21,CCCc1nc(SCC(=O)Nc2ccc(S(=O)(=O)N(C)C)cc2)c2ccccc2n1,"inconclusive [inhibitor, partial curve, poor fit]"
22,Cc1ccc2[nH]c3c(c2c1)CCc1cn[nH]c1-3,active: 14.1 µM
23,Cc1cc(C)c(OCCOCCN2CCN(C)CC2)c(Cl)c1,"inconclusive [inhibitor, full curve]"
